Measured values reported in the supplement of paper PMC4967469.
A lower IC50 marks a more sensitive line; fits outside the tested doses are given as limits. AUC is the area under the same curve over the 256-fold range up to the top dose, as a fraction; it is 1 without any effect and falls as sensitivity rises. For some of these results: Where the top dose is marked as inferred, it was calculated from the reported fits.

How the values were obtained:
Assay in all cases: Viability of human cancer cell lines after 72 h of drug (GDSC screen)
Gefitinib = compound: COc1cc2ncnc(Nc3ccc(F)c(Cl)c3)c2cc1OCCCN1CCOCC1 [Gefitinib]; settings: top dose 0.5 µM
Procedure: (§1)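 Human cancer cell lines in 384-well plates, medium with 10% serum, drug for 72 h over a 256-fold dose range (nine 2-fold or five 4-fold steps up to the top dose). Adherent lines were fixed and stained with the nucleic acid dye Syto60, suspension lines read with resazurin; signal relative to control wells, capped at 0 and 100%. One two-parameter sigmoid per drug and line, fitted in a mixed model over all curves with the slope shared within a line.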

AG-014699 = compound: CNCc1ccc(-c2[nH]c3cc(F)cc4c3c2CCNC4=O)cc1 [AG-014699]; settings: top dose 5 µM; top dose inferred
Procedure: as §1

NU-7441 = compound: O=c1cc(N2CCOCC2)oc2c(-c3cccc4c3sc3ccccc34)cccc12 [NU-7441]; settings: top dose 2 µM; top dose inferred
Procedure: as §1

EHT 1864 = compound: O=c1cc(CN2CCOCC2)occ1OCCCCCSc1ccnc2cc(C(F)(F)F)ccc12 [EHT 1864]; settings: top dose 10 µM; top dose inferred
Procedure: as §1

XL-184 = compound: COc1cc2nccc(Oc3ccc(NC(=O)C4(C(=O)Nc5ccc(F)cc5)CC4)cc3)c2cc1OC [XL-184]; settings: top dose 5.12 µM; top dose inferred
Procedure: as §1

QL-XI-92 = compound: C=CC(=O)Nc1cc(NC(=O)c2ccc(C)c(NC(=O)c3ccno3)c2)cc(C(F)(F)F)c1 [QL-XI-92]; settings: top dose 10.24 µM; top dose inferred
Procedure: as §1

Phenformin = compound: N=C(N)NC(=N)NCCc1ccccc1 [Phenformin]; settings: top dose 4000 µM; top dose inferred
Procedure: as §1

WHI-P97 = compound: COc1cc2ncnc(Nc3cc(Br)c(O)c(Br)c3)c2cc1OC [WHI-P97]; settings: top dose 10.24 µM; top dose inferred
Procedure: as §1

Vinorelbine = compound: CCC1=C[C@@H]2CN(C1)Cc1c([nH]c3ccccc13)[C@@](C(=O)OC)(c1cc3c(cc1OC)N(C)[C@H]1[C@@](O)(C(=O)OC)[C@H](OC(C)=O)[C@]4(CC)C=CCN5CC[C@]31[C@@H]54)C2 [Vinorelbine]; settings: top dose 0.064 µM; top dose inferred
Procedure: as §1

Row | Cell Line | AUC (Gefitinib) | IC50 (Gefitinib) [µM] | AUC (AG-014699) | IC50 (AG-014699) [µM] | AUC (NU-7441) | IC50 (NU-7441) [µM] | AUC (EHT 1864) | IC50 (EHT 1864) [µM] | AUC (XL-184) | IC50 (XL-184) [µM] | AUC (QL-XI-92) | IC50 (QL-XI-92) [µM] | AUC (Phenformin) | IC50 (Phenformin) [µM] | AUC (WHI-P97) | IC50 (WHI-P97) [µM] | AUC (Vinorelbine) | IC50 (Vinorelbine) [µM]
1 | MOLM-16 (acute myeloid leukaemia, suspension) | 0.963 | > 0.5 | 0.973 | > 5 | 0.885 | 1.73 | 0.848 | 6.12 | – | – | – | – | – | – | – | – | – | –
2 | MOLT-16 (T-cell lymphoblastic leukaemia, suspension) | 0.97 | > 0.5 | 0.911 | 4.58 | 0.991 | > 2 | 0.799 | 3.72 | – | – | – | – | – | – | – | – | – | –
3 | NCC010 (kidney, adherent) | 0.983 | > 0.5 | 0.982 | > 5 | 0.969 | > 2 | 0.966 | > 10 | – | – | – | – | – | – | – | – | – | –
4 | NCI-H146 (small cell lung carcinoma, suspension) | 0.992 | > 0.5 | 0.987 | > 5 | 0.981 | > 2 | 0.99 | > 10 | – | – | – | – | – | – | – | – | – | –
5 | NCI-H508 (large intestine, semi-adherent) | 0.719 | 0.203 | 0.904 | > 5 | 0.833 | > 2 | 0.944 | > 10 | – | – | – | – | – | – | – | – | – | –
6 | NCI-H835 (lung carcinoid, suspension) | 0.988 | > 0.5 | 0.991 | > 5 | 0.991 | > 2 | 0.973 | > 10 | – | – | – | – | – | – | – | – | – | –
7 | NCI-H929 (myeloma, suspension) | 0.96 | > 0.5 | 0.99 | > 5 | 0.836 | 1.06 | 0.946 | > 10 | – | – | – | – | – | – | – | – | – | –
8 | NCI-H1105 (small cell lung carcinoma, suspension) | 0.993 | > 0.5 | – | – | 0.993 | > 2 | 0.993 | > 10 | – | – | – | – | – | – | – | – | – | –
9 | NCI-H1341 (small cell lung carcinoma, suspension) | 0.989 | > 0.5 | 0.992 | > 5 | 0.99 | > 2 | 0.985 | > 10 | – | – | – | – | – | – | – | – | – | –
10 | NCI-N87 (stomach, adherent) | 0.975 | > 0.5 | 0.957 | > 5 | 0.974 | > 2 | 0.933 | > 10 | – | – | – | – | – | – | – | – | – | –
11 | OCI-LY7 (B-cell lymphoma, suspension) | 0.991 | > 0.5 | 0.995 | > 5 | 0.896 | 1.23 | 0.94 | 8.78 | – | – | – | – | – | – | – | – | – | –
12 | PWR-1E (prostate, adherent) | 0.983 | > 0.5 | 0.976 | > 5 | 0.962 | > 2 | 0.987 | > 10 | – | – | – | – | – | – | – | – | – | –
13 | RCH-ACV (B-cell leukaemia, suspension) | 0.982 | > 0.5 | 0.952 | > 5 | 0.898 | 1.72 | 0.959 | > 10 | – | – | – | – | – | – | – | – | – | –
14 | RH-18 (rhabdomyosarcoma, adherent) | 0.966 | > 0.5 | 0.947 | > 5 | 0.888 | > 2 | 0.95 | > 10 | – | – | – | – | – | – | – | – | – | –
15 | SK-GT-2 (stomach, adherent) | 0.933 | > 0.5 | 0.986 | > 5 | 0.968 | > 2 | 0.933 | > 10 | – | – | – | – | – | – | – | – | – | –
16 | SK-MEL-31 (melanoma, adherent) | 0.983 | > 0.5 | 0.985 | > 5 | 0.969 | > 2 | 0.967 | > 10 | – | – | – | – | – | – | – | – | – | –
17 | SUP-B8 (B-cell leukaemia, suspension) | 0.989 | > 0.5 | 0.989 | > 5 | 0.898 | > 2 | 0.933 | > 10 | – | – | – | – | – | – | – | – | – | –
18 | TC-YIK (cervix, suspension) | 0.984 | > 0.5 | 0.991 | > 5 | 0.97 | > 2 | 0.915 | > 10 | – | – | – | – | – | – | – | – | – | –
19 | U-266 (myeloma, semi-adherent) | 0.971 | > 0.5 | – | – | 0.983 | > 2 | – | – | – | – | – | – | – | – | – | – | – | –
20 | UM-UC-3 (bladder, adherent) | 0.975 | > 0.5 | 0.971 | > 5 | – | – | 0.926 | > 10 | 0.896 | > 5.12 | 0.899 | > 10.2 | 0.667 | 707 | 0.93 | > 10.2 | 0.711 | 0.0151
21 | UMC-11 (lung carcinoid, adherent) | 0.975 | > 0.5 | 0.988 | > 5 | – | – | 0.908 | > 10 | 0.914 | > 5.12 | 0.974 | > 10.2 | 0.54 | 317 | 0.979 | > 10.2 | 0.883 | 0.0559
22 | VMRC-LCD (lung adenocarcinoma, adherent) | 0.992 | > 0.5 | 0.992 | > 5 | 0.984 | > 2 | 0.91 | > 10 | – | – | – | – | – | – | – | – | – | –
23 | VMRC-MELG (melanoma, adherent) | 0.987 | > 0.5 | 0.989 | > 5 | – | – | 0.977 | > 10 | 0.813 | 2.92 | 0.982 | > 10.2 | 0.857 | 3480 | 0.877 | > 10.2 | 0.969 | > 0.064
24 | WM278 (melanoma, adherent) | 0.98 | > 0.5 | 0.898 | > 5 | – | – | 0.974 | > 10 | 0.912 | > 5.12 | 0.98 | > 10.2 | 0.843 | 3390 | 0.922 | > 10.2 | 0.803 | 0.0364
25 | ZR-75-30 (breast, adherent) | 0.98 | > 0.5 | 0.983 | > 5 | 0.981 | > 2 | 0.921 | > 10 | – | – | – | – | – | – | – | – | – | –
